In PubChem BioAssay AID504333 (National Center for Advancing Translational Sciences (NCATS), 2011):
Out of some 360,000 compounds screened, about 16,000 (4.4%) were called active. Inconclusive results, whose numbers are uncertain, are shown with a selection of clear calls. Calls follow the shape of the dose curve; as a rule, active = well fitted inhibition curve with a large enough effect; inconclusive = small, poorly fitted or top-dose-only effect; inactive = no such curve, though single readings can be large or run the other way. Potencies of inconclusive entries are doubtful fits and often do not repeat.

target: Bromodomain adjacent to zinc finger domain protein 2B (Homo sapiens) (UniProt Q9UIF8); assay: qHTS Assay for Inhibitors of BAZ2B; details: AlphaScreen BAZ2B-H3K14Ac peptide displacement; activity change, negative = inhibition: at 114 µM (top of the series); also: nearly all actives have a fitted effect of over 60% in size
Sequence of UniProt Q9UIF8 (Q9UIF8 whole entry, looked up, the tested form may be a part): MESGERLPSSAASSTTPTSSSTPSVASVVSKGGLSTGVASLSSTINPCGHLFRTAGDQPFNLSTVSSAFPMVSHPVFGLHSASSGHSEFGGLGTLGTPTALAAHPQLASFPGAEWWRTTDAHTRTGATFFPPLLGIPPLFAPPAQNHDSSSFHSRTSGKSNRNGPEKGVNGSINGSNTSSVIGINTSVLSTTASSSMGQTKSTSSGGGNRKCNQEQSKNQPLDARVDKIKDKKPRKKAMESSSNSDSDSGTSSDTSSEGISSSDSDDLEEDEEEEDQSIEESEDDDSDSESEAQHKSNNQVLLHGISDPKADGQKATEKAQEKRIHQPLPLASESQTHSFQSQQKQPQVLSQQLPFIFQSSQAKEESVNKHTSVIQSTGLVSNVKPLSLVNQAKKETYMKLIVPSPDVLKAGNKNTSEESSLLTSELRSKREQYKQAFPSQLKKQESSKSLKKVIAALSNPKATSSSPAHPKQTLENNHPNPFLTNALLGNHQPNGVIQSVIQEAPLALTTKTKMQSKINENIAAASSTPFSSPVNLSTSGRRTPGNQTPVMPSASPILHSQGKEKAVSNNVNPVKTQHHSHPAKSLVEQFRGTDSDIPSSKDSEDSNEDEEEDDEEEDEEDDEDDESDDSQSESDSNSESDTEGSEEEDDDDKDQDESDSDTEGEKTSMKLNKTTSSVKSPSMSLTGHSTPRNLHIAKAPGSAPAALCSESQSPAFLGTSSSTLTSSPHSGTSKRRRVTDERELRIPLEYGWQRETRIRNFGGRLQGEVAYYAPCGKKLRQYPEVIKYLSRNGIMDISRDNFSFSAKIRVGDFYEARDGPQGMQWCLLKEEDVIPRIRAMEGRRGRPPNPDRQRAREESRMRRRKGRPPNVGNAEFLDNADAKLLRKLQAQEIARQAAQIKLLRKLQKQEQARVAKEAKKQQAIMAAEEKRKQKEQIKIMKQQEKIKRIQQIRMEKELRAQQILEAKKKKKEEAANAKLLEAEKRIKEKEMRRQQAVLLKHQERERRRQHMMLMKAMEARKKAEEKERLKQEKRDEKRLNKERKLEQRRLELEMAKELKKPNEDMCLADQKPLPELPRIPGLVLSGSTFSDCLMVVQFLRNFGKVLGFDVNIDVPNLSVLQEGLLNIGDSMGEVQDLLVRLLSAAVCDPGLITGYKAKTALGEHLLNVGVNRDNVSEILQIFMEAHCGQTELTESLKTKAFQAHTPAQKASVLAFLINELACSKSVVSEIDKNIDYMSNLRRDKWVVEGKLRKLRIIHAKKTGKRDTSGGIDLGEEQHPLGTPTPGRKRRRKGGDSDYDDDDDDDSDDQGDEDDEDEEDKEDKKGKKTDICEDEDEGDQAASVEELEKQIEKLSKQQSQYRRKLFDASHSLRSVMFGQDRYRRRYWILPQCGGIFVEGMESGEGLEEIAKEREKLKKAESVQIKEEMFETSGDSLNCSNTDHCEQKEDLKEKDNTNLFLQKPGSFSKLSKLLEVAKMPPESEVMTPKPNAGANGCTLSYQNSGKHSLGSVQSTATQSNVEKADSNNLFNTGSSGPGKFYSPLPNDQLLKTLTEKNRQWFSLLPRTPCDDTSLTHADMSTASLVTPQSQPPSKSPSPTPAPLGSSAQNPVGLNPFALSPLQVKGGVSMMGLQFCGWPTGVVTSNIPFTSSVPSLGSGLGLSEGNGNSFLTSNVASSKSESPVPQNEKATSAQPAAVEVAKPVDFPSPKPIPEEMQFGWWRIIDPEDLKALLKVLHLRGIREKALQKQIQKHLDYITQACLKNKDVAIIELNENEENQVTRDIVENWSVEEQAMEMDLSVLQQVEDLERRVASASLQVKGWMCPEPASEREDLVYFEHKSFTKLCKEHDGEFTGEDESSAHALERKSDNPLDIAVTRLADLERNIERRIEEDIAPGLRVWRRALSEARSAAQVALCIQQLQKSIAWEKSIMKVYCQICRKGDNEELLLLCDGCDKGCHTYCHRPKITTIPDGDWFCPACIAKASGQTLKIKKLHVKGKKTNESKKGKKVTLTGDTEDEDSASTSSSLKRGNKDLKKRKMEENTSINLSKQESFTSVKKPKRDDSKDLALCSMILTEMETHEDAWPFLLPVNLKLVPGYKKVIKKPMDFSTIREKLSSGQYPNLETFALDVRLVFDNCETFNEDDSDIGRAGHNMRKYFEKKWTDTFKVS
Method in brief: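 AlphaScreen displacement of biotin-H3(5-23)K14Ac peptide (50 nM final) from BAZ2B (50 nM final) in PBS pH 7.4, 0.01% Tween-20; complex preformed 30 min RT, then compounds (top 110 uM) 30 min RT, beads 20 min dark.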
% is scaled to controls: 0 for no effect and ±100 for the full control effect; potency is read from the fitted curve at half-maximal effect; tags tell the direction and shape of the fitted curve.

SMILES | Potency | activity change, negative = inhibition
COc1ccc(/C(O)=C2\C(=O)C(=O)N(Cc3ccco3)C2c2ccc(OC)cc2OC)cc1 (stereo unspecified) | inconclusive: 79.4 µM [inhibitor, single point] | 
Cc1cccc(C)c1NC(=O)CSc1ncnc2nc[nH]c12 |  | inactive: 2.29%
Cc1nn(C)c(=S)n1-c1ccc(Cl)cc1 |  | inactive: -5.67%
Cc1ccc2cc(C(c3nnnn3Cc3ccccc3)N3CCc4ccccc43)c(=O)[nH]c2c1C (stereo unspecified) |  | inactive: 6.27%
S=c1[nH]nc(-c2ccco2)n1/N=C/c1ccc(Br)s1 | active: 70.8 µM | 
S=C(N/N=C/c1ccc(Cl)cc1)N1CCOCC1 | inconclusive: 17.8 µM [inhibitor, full curve] | 
Cc1nn(-c2ccccc2)c(OC(=O)c2ccccc2F)c1S(=O)(=O)c1ccccc1 | inconclusive: 79.4 µM [inhibitor, single point] | 
C=CCNCCCOc1ccc(C(C)(C)c2ccccc2)cc1 | active: 39.8 µM | 
CCc1nnc(NS(=O)(=O)c2ccc(NC(=O)COc3ccc4ccccc4c3)cc2)s1 | inconclusive: 89.1 µM [inhibitor, single point] | 
NC(=O)CSc1nnc2ccc(-c3ccc(Cl)cc3)nn12 | active: 89.1 µM | 
COc1ccc(N2CCN(C3CCCN(Cc4ccc(F)cc4)C3)CC2)cc1 (stereo unspecified) | inconclusive: 70.8 µM [inhibitor, single point] | 
Cc1cccc(NC(=O)CCS(=O)(=O)c2ccc3c(c2)NC(=O)CS3)n1 |  | inactive: -21%
Clc1ccc(CSc2nnc([C@@H]3CCCN3)o2)cc1 | inconclusive: 100 µM [inhibitor, single point] | 
C/C(=N\NC(=O)C1(C)CC1(Br)Br)c1cccc(NC(=O)c2ccc(C)o2)c1 (stereo unspecified) | inconclusive: 50.1 µM [inhibitor, partial curve] | 
NS(=O)(=O)c1ccc(NC(=O)C2C3C=CC(C3)C2C(=O)O)cc1 (stereo unspecified) |  | inactive: -2.34%
O=C(Nc1cc(S(=O)(=O)Nc2ccc(Cl)cc2)ccc1O)c1ccc(S(=O)(=O)N2CCCCCC2)cc1 | inconclusive: 89.1 µM [inhibitor, single point] | 
Cc1ccc(CN2CC(C(=O)Nc3nnc(SCc4c(Cl)cccc4Cl)s3)CC2=O)cc1 (stereo unspecified) | inconclusive: 89.1 µM [inhibitor, single point] | 
O=C(c1cc(=O)c2cc(Cl)ccc2o1)N1CCN(Cc2ccccc2)CC1 |  | inactive: -10.7%
CCOC(=O)c1c(Nc2cccc(O)c2)nnc(-c2ccccc2)c1-c1ccccc1 | inconclusive: 20 µM [inhibitor, full curve] | 
Cc1ccc2oc(-c3cc(NC(=O)c4ncn[nH]4)ccc3O)nc2c1 | inconclusive: 89.1 µM [inhibitor, single point] | 
CC(C)[C@@H](C(=O)N1CCN(C(=O)OC(C)(C)C)CC1)n1cc(CCO)nn1 |  | inactive: -22.7%
O=C(/C=C/c1ccco1)NCCc1ccc(F)cc1 | active: 79.4 µM | 
COc1c(Cl)cc(C(=O)Nc2cccc(-c3nc4ccccc4[nH]3)c2)cc1Cl |  | inactive: -2.94%

SMILES | Potency | activity change, negative = inhibition
Cc1ccc(C(=O)c2sc(Nc3ccccc3F)c(S(=O)(=O)c3ccccc3)c2N)c(C)c1 | inconclusive: 22.4 µM [inhibitor, full curve] | 
O=C(c1cccc(F)c1)N1CCN(Cc2ccc3c(c2)OCO3)CC1 | active: 50.1 µM | 
CCCNC(=O)C(NS(=O)(=O)c1ccc2c(c1)c(=O)n(C)c(=O)n2C)c1ccccc1 (stereo unspecified) |  | inactive: -1.91%
Cc1ccc(NC(=O)CCC(=O)N2CCOCC2)nc1 | inconclusive: 3.55 µM [inhibitor, single point] | 
O=C(CN(C(=O)CCC(=O)Nc1nccs1)c1ccccc1F)NCc1ccc(F)cc1 |  | inactive: 0.489%
Cc1cc(C)n(-c2n[nH]c(=O)c3ccccc23)n1 |  | inactive: -0.075%
O=C(COC(=O)c1ccccn1)c1ccc(Br)cc1 | active: 25.1 µM | 
Cn1c(=O)n(CCc2ccccc2)c(=O)c2c1nc1n2CCCN1c1ccccc1 | inconclusive: 39.8 µM [inhibitor, single point] | 
COc1ccccc1C1C(C#N)=C(N)Oc2cc(C)n(CCCn3ccnc3)c(=O)c21 (stereo unspecified) | inconclusive: 89.1 µM [inhibitor, single point] | 
C=CCn1c(SCC(=O)Nc2sc(C)c(C)c2C(=O)OCC)nnc1-c1sc(N)nc1C | inconclusive: 11.2 µM [inhibitor, single point] | 
CCC(=O)Nc1ccc(NC(=O)/C=C/c2ccc(Cl)cc2)cc1 |  | inactive: -3.14%
Cc1cc(C)n2nc(SC(C)C(=O)NCc3ccco3)nc2n1 (stereo unspecified) | inconclusive: 89.1 µM [inhibitor, single point] | 
Cc1ccc(S(=O)(=O)N(CC2CO2)c2cccc([N+](=O)[O-])c2)cc1 (stereo unspecified) |  | inactive: -4.08%
COc1ccc(Nc2nc(N)c([N+](=O)[O-])c(NCc3ccccc3)n2)cc1 | inconclusive: 35.5 µM [inhibitor, partial curve] | 
Cc1cc(C)n(-c2ccc(C(=O)OCC(=O)Nc3ccc(Cl)cc3[N+](=O)[O-])cc2)n1 | inconclusive: 89.1 µM [inhibitor, single point] | 
CCC1=NN(C(=O)c2ccc(Cl)cc2)C(O)(c2ccccc2)C1 (stereo unspecified) | active: 50.1 µM | 
O=c1c2ccccc2oc2nc(C3CCCCC3)n(Cc3ccco3)c(=O)c12 | inconclusive: 89.1 µM [inhibitor, single point] | 
COC(=O)/C(C#N)=C/c1ccc(-c2ccc(S(N)(=O)=O)cc2)o1 | inconclusive: 100 µM [inhibitor, single point] | 
CN(C)CCNc1ncnc2c1sc1nc(N3CCCC3)c3c(c12)CC(C)(C)OC3 | inconclusive: 31.6 µM [inhibitor, partial curve] | 
Cn1c(=O)n(C)c2cc(N3CCCCC3)c(NC(=O)c3ccc(Cl)cc3)cc21 | inconclusive: 39.8 µM [inhibitor, partial curve] | 
Cn1c(SCC(=O)NC2CC2)nnc1-c1ccccn1 | inconclusive: 79.4 µM [inhibitor, partial curve] | 
O=C1C(C2=NC(c3ccccn3)C3C(=O)N(c4ccc(OC(F)(F)F)cc4)C(=O)C23)=C(O)c2ccccc21 (stereo unspecified) |  | inactive: -7.59%
CCOC(=O)c1c(CN(C)C)oc2cc(CN(C)C)c(O)c(CSc3ccccc3)c12 | inconclusive: 79.4 µM [inhibitor, single point] | 
